T1: UNK ZnF1-6 (called full-length) (human, UniProt Q9C0B0 30-357)
T1 sequence: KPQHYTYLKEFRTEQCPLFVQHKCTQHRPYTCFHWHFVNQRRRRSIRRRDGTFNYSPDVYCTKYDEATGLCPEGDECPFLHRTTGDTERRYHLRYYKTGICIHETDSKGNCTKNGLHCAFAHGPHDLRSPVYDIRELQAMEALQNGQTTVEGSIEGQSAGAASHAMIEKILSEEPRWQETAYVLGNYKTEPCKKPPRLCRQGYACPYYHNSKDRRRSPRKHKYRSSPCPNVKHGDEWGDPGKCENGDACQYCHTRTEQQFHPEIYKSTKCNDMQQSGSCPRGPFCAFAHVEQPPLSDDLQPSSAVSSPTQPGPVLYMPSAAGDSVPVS

B1: chr17:55719626:55720665:-|three_prime_utr|ENSG00000166292|control|control|control (ssRNA)
RNA: GGGAGUUCUACAGUCCGACGAUCUGAAAAAUCAGCUUUCUAUUUACAUGAAACACUUUGGGGGUCAUGGGAGUGCACAGCAUUAGACAGUAUUUGGUUCACCCUGUAAAGUAGCCAAGAAAAGAUGAGAAAAAUCAAGAUAGGCAACAGAGGAUUGAGCAUCA
B2: chr20:31606305:31606406:+|3pUTR|ENSG00000125968|msi1|FALSE|unique (ssRNA)
RNA: GGGAGUUCUACAGUCCGACGAUCUGAGGCACUGGCGAGGAGAGGGCGCUCCUCUCUGCACACCUACUAGUCACCAGAGACUUUAGGGGGUGGGAUUCCACUCGUGUGUUUCUAUUUUUUGAAAAGCAGACAUUUUAAAAAAUGCAACAGAGGAUUGAGCAUCA
B3: ENSG00000168288:stop:overlap|stop_codon|ENSG00000168288|stop_codon|NA|stop_codon (ssRNA)
RNA: GGGAGUUCUACAGUCCGACGAUCGGAGUAUCUUCACUAAUGCAACACCAGACAGCCAUAUUAUGAAGAAAUUAAGUGGAAAUUAGCAGAAAUAUCCAUUCAUUUGCUGUACUAUUUGUAUGUAAUAUUUGGGUUGAUCUAUAACAACAGAGGAUUGAGCAUCA
B4: ENSG00000198589:be:win_9651|3pUTR|ENSG00000198589|bound_else_gene|NA|bound_elsewhere_windowed (ssRNA)
RNA: GGGAGUUCUACAGUCCGACGAUCCUUCAAGUGGUCCCUCUUUUUUUCCUACACACUCAGCUCUUCUCUAAAAGCAAGGAUUUGGAAUGAACAAUUCAGUUUGACAGAAAAAGCUGAAUAAAAUGGCAUCUGUAAUUGAAUUGUCAACAGAGGAUUGAGCAUCA
B5: ENSG00000198898:stop:overlap|stop_codon|ENSG00000198898|stop_codon|NA|stop_codon (ssRNA)
RNA: GGGAGUUCUACAGUCCGACGAUCCUCUGAGAGCUUACGUAAAAGAACAUUACCCGAAUGGAGUCUGCACUGUAAGUCAUCAGUAGCAGCUUUGUGUGUGUGUUUUGUGUAAAUGUGAGUCUUUAGCGUCUCUUAAAAUUUACACAACAGAGGAUUGAGCAUCA
B6: chr15:73560698:73560803:-|3pUTR|ENSG00000156642|msi1_unk|total|mutant (ssRNA)
RNA: GGGAGUUCUACAGUCCGACGAUCUUUUGGGCUUGAUGUGCUGUGAAUGUUGCUUUUUUUUUUCCUUUGUUAAAAUAUUUAAACCGAAGUGAAAAGGUCCUCUGAGGAUCAGAUCAUGCAUGCGCCAUUUUUUACUUAAUGCAGCAACAGAGGAUUGAGCAUCA
B7: ENSG00000175215:stop:overlap|stop_codon|ENSG00000175215|stop_codon|NA|stop_codon (ssRNA)
RNA: GGGAGUUCUACAGUCCGACGAUCUUGAGGAGCUGAGCGGAGCAGAGGACGUCUACACCAGCCUUGGGCAGCUGCGGGCCCCUUAGCCUGCCCUGCUUCCAAGCGACGGCCAUCCCAGUAGGGGACUUUCCCACACUGUGCCUUCAACAGAGGAUUGAGCAUCA
B8: ENSG00000198589:be:win_5351|CDS|ENSG00000198589|bound_else_gene|NA|bound_elsewhere_windowed (ssRNA)
RNA: GGGAGUUCUACAGUCCGACGAUCAUUCAGUUUCACAAGAUCCGGUUUCAAAUAUGAGUAUUACAGAGAGGCUUGAACACGCUUUGGAAAAGGCAGCUCCUCUCCUUCGUGAGAUUUUUGUGGAUUUUGCACCUUUUCUUUCUCCAACAGAGGAUUGAGCAUCA
B9: chr3:100728682:100728848:+|CDS|ENSG00000114354|unk|FALSE|unique (ssRNA)
RNA: GGGAGUUCUACAGUCCGACGAUCUAAUGGCCAGCCAAGACCCCUUGAAUCAAGUCAGGUGAAAUAUCUCCGUCGAGAACUGAUAGAACUUCGAAAUAAAGUGAAUCGUUUAUUGGAUAGCUUGGAACCACCUGGAGAACCAGGCAACAGAGGAUUGAGCAUCA
B10: chr9:86945015:86945116:-|3pUTR|ENSG00000180447|msi1|FALSE|unique (ssRNA)
RNA: GGGAGUUCUACAGUCCGACGAUCUUGGUUUUGGAUAAGUUUGAGCCCUUGACCUUAAUUUCAUUGCUACCACUCUGAUCUCUUAGCACAUUUCUUAGGAUUAAGGGUCCAAAAAUGCUGAUCUAAGGGGUUGCCAUGGUGUUGCAACAGAGGAUUGAGCAUCA
B11: chr12:54350855:54350965:+|3pUTR|ENSG00000111481|msi1|FALSE|unique (ssRNA)
RNA: GGGAGUUCUACAGUCCGACGAUCUUGCCCUGACAUUUUUGUAAAUUCUGUGCCCUUUGCUGUAGCUACACUUCAGAUUAAAGUAGGAGAAAGAAUGUGCUGAGUGUUUUCCUCCCUUUGCCUCUACCUGGCCCUCAUCCCAACCAACAGAGGAUUGAGCAUCA
B12: chr1:213005240:213005351:-|CDS|ENSG00000174606|unk|total|mutant (ssRNA)
RNA: GGGAGUUCUACAGUCCGACGAUCGAACCCAGUGGAAUUCUUCCGCCCUGAUAUUUCUCUGUUGGACAGAGACAAUGUUGGAUCCGUUUUACUCUUACAGCCCAAAAUUCCAUAUGCUGCCUGCCCUGCAAUCUGCGCCGCAAACAACAGAGGAUUGAGCAUCA
B13: chr16:58551611:58551719:-|CDS|ENSG00000125107|unk|FALSE|unique (ssRNA)
RNA: GGGAGUUCUACAGUCCGACGAUCCUGGCUCAGGCCCAGGCUCAGGCCCAGGUUCCAGCAAAAGCUCCUCUUGCUGGUCAAGUUAGCACUAUGGUAACCACCUCAACAACUACCACUGUUGCUAAAACGGUUACGGUCACCAGGCAACAGAGGAUUGAGCAUCA
B14: ENSG00000107863:be:win_1501|CDS|ENSG00000107863|bound_else_gene|NA|bound_elsewhere_windowed (ssRNA)
RNA: GGGAGUUCUACAGUCCGACGAUCGGACAGGAUGAAACCUUAGAAAAUGUCAAUUCUGGAACUCCAAUACCUGAUUCCAAUGGAGAGAAAAAACAGACUUACAAGUGGAGUGGGUUUACUGAACAGGAUGAUAGACGAGGUAUUCAACAGAGGAUUGAGCAUCA

The other results are listed elsewhere or left out.

The target of this assay is T1, UNK ZnF1-6 (called full-length). The assay is described as follows: nsRBNS (natural sequence RNA bind-n-seq); RBNS binding buffer (assumed for nsRBNS): 25 mM Tris pH 7.5, 150 mM KCl, 3 mM MgCl2, 0.01% Triton X-100, 500 ug/ml BSA, 20 U/ml SUPERase-In, 4 C; UNK is unkempt and MSI1 is Musashi-1; names of the RNAs are library labels; protein concentration not given here; high values mean tight binding.
For B1, the binding signal was determined as 1.03 enrichment R. B2 returned a binding signal of 0.705 enrichment R.

B3 yielded a binding signal of 0.868 enrichment R.

B4 came in with a binding signal of 0.386 enrichment R. B5 returned a binding signal of 1.2 enrichment R. Then B6, with 0.537 enrichment R; and B7, with 0.741 enrichment R; and B8, with 0.428 enrichment R.

Molecule B9 showed a binding signal of 0.768 enrichment R. The molecule B10 showed a binding signal of 0.366 enrichment R. Molecule B11 returned a binding signal of 0.574 enrichment R.

In the case of B12, the binding signal is 0.517 enrichment R.

B13 came in with a binding signal of 0.503 enrichment R. B14 showed a binding signal of 1.34 enrichment R.

The record behind these values is article PMC12136788.
